# Test results taken from the supplement of paper PMC9446081.
# Out of some 39,000 compounds screened, about 220 (0.56%) showed activity. This is one part of the list.
# Tested on: Escherichia coli K-12 BW25113
# Test: relative growth (OD600 normalised to plate interquartile mean) (fraction); higher = less growth inhibition, active = 0.2 or less
# Conditions: 50 µM; LB; incubation time: overnight (16-24 h)
# 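Also: static incubation at 37 °C against the wild-type strain, values averaged over two biological replicates.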
row,SMILES,relative growth
1,C[C@@H]1CN([C@H](C)CO)C(=O)Cc2cc(NS(=O)(=O)c3ccc(Cl)cc3)ccc2O[C@H]1CN(C)S(C)(=O)=O,inactive: 1
2,CCC(=C/[C@H](C)C/C=C/C(C)=C/[C@@H](C)C(=O)[C@@H](C)[C@H](O)[C@@H](C)C/C(C)=C/C(=O)O)/C=C/[C@@H]1OC(=O)C=C[C@@H]1C,inactive: 0.948
3,O=C(C[C@@H]1C[C@@H]2c3cc(NC(=O)c4ccc5c(c4)OCO5)ccc3O[C@@H]2[C@H](CO)O1)NCc1ccccn1,inactive: 1
4,COc1ccc(NC(=O)N(C)C[C@@H]2Oc3cc(C#CCN(C)C)ccc3S(=O)(=O)N([C@H](C)CO)C[C@@H]2C)cc1,inactive: 0.987
5,C[C@@H](O)[C@H]1C(=O)N2C(C(=O)O)=C(SCCNC=N)C[C@H]12,inactive: 1.01
6,C[C@H](CO)N1C[C@H](C)[C@@H](CN(C)Cc2ccc(Oc3ccccc3)cc2)Oc2ccc(NS(=O)(=O)c3cccs3)cc2C1=O,inactive: 1.01
7,C[C@@H]1CN([C@H](C)CO)C(=O)c2cccc(NC(=O)C3CCOCC3)c2O[C@H]1CN(C)Cc1ccccc1,inactive: 1
8,Cc1cnc(N)c(C)n1,inactive: 1.02
9,NCC[C@H]1CC[C@@H](NC(=O)C2CC2)[C@@H](CO)O1,inactive: 1
10,C[C@@H]1CCCCO[C@H](CN(C)S(=O)(=O)c2ccccc2)[C@@H](C)CN([C@@H](C)CO)C(=O)c2cc(NS(C)(=O)=O)ccc2O1,inactive: 1.01
11,C[C@@H]1CCCCO[C@H](CN(C)Cc2ccc(Cl)c(Cl)c2)[C@@H](C)CN([C@H](C)CO)C(=O)c2cc(NC(=O)Nc3cccc4ccccc34)ccc2O1,inactive: 0.971
12,C[C@@H]1CN([C@@H](C)CO)C(=O)c2c(c3ccccc3n2C)-c2ccccc2CO[C@@H]1CN(C)Cc1ccc(-c2ccccc2)cc1,inactive: 0.998
13,C[C@H]1CN([C@@H](C)CO)C(=O)c2cc(NC(=O)Nc3cccc4ccccc34)ccc2O[C@@H]1CN(C)CC1CCCCC1,inactive: 0.999
14,COCCOC(=O)N1C(=O)[C@@]2(c3cc(C#CCC(C(=O)OC)C(=O)OC)ccc31)[C@H](c1ccc(OCCO)cc1)N1[C@H](c3ccccc3)[C@H](c3ccccc3)OC(=O)[C@H]1[C@@H]2C(=O)N1CCCCCCC1,inactive: 1.04
15,CC(C)NC(=O)N(C)C[C@H]1Oc2c(NC(=O)C3CCCCC3)cccc2C(=O)N([C@H](C)CO)C[C@H]1C,inactive: 1.01
16,Cc1noc(C)c1S(=O)(=O)Nc1ccc2c(c1)CC(=O)N([C@@H](C)CO)C[C@H](C)[C@H](CN(C)C(=O)Nc1ccc3c(c1)OCO3)O2,inactive: 1
17,CC(C)COc1c[nH]c(CO)cc1=O,inactive: 0.961
18,Cc1noc(C)c1S(=O)(=O)Nc1ccc2c(c1)C(=O)N([C@H](C)CO)C[C@H](C)[C@@H](CN(C)Cc1ccncc1)O2,inactive: 0.922
19,C[C@@H]1CCCCO[C@H](CN(C)C(=O)Nc2cccc3ccccc23)[C@H](C)CN([C@@H](C)CO)C(=O)c2cc(NC(=O)Nc3ccc4c(c3)OCO4)ccc2O1,inactive: 1
20,Cc1noc(C)c1NC(=O)Nc1ccc2c(c1)C(=O)N([C@@H](C)CO)C[C@H](C)[C@@H](CN(C)S(=O)(=O)c1cccs1)OCCCC[C@H](C)O2,inactive: 0.989
21,C[C@H]1CNC(=O)[C@@H](CC(=O)N(CCOC(=O)NCCCCCC(=O)NO)Cc2ccccc2)C/C=C/CC[C@H](NC(=O)OC(C)(C)C)C(=O)O1,inactive: 0.993
22,C[C@@H]1CN([C@H](C)CO)C(=O)c2cccc(NS(=O)(=O)c3ccc(Cl)cc3)c2O[C@H]1CN(C)S(=O)(=O)c1cn(C)cn1,inactive: 0.98

row,SMILES,relative growth
1,Cc1ccc(S(=O)(=O)N(C)C[C@H]2OCCCC[C@@H](C)Oc3ccc(NC(=O)Nc4ccc(F)cc4)cc3C(=O)N([C@@H](C)CO)C[C@@H]2C)cc1,inactive: 1.03
2,Cc1noc(C)c1S(=O)(=O)N(C)C[C@@H]1OCCCC[C@@H](C)Oc2ccc(NC(=O)Nc3ccc(F)cc3)cc2C(=O)N([C@@H](C)CO)C[C@H]1C,inactive: 0.997
3,CN(C)S(=O)(=O)N(C)c1ccccc1,inactive: 1.01
4,COc1ccc(S(=O)(=O)Nc2ccc3c(c2)C(=O)N([C@H](C)CO)C[C@@H](C)[C@H](CN(C)CC2CCCCC2)OCCCC[C@@H](C)O3)cc1,inactive: 1
5,C=CC[C@@H](CC(=O)N(CCO)Cc1ccccc1)C(=O)NC[C@@H](OC(=O)[C@@H](CC=C)Cc1ccc(F)cc1)c1ccccc1,inactive: 1.08
6,Cc1ccc(-c2ccc3c(c2)O[C@@H](CN(C)C(=O)NC(C)C)[C@H](C)CN([C@H](C)CO)S3(=O)=O)cc1,inactive: 1.01
7,O=S(=O)(NCCCCN(C/C=C/c1ccc(F)cc1)C/C=C/c1ccc(F)cc1)c1cccc2cnccc12,inactive: 1.02
8,Cc1cc(SC(=O)N/C=C/c2ccco2)c(C)cc1Cl,inactive: 0.893
9,C[C@@H]1CN([C@@H](C)CO)C(=O)Cc2cc(NS(C)(=O)=O)ccc2O[C@H]1CN(C)C,inactive: 0.985
10,Cl.Nc1ncnc(Nc2ccc(Cl)cc2)n1,inactive: 1.03
11,C[C@@H]1CCCCO[C@@H](CN(C)C(=O)c2ccccc2)[C@H](C)CN([C@H](C)CO)C(=O)c2cc(NS(=O)(=O)c3ccc(Cl)cc3)ccc2O1,inactive: 1.03
12,C[C@@H]1CN([C@@H](C)CO)C(=O)c2cccc(NC(=O)Nc3cccc4ccccc34)c2O[C@H]1CN(C)S(=O)(=O)c1cccc(F)c1,inactive: 0.946
13,COCc1cn(CC[C@H]2CC[C@@H](NC(=O)CCN3CCCCC3)[C@@H](CO)O2)nn1,inactive: 0.989
14,Cc1noc(C)c1S(=O)(=O)Nc1cccc2c1O[C@@H](CN(C)Cc1ccncc1)[C@@H](C)CN([C@H](C)CO)C2=O,inactive: 0.941
15,C[C@@H](Nc1nc(=O)cc(F)[nH]1)C(=O)O,inactive: 0.995
16,O=C(O)C1CN(C(=O)c2cnccn2)C1,inactive: 1.03
17,CC1CN(c2c(F)c(F)c3c(=O)c(C(=O)O)cn(C4CC4)c3c2F)CC(C)N1 (centres undefined),active: 0.0486
18,C[C@H]1CN([C@@H](C)CO)C(=O)Cc2cc(NC(=O)Nc3ccc(F)cc3)ccc2O[C@@H]1CN(C)C(=O)Nc1ccc(C(F)(F)F)cc1,inactive: 1
19,C[C@@H]1CCCCO[C@@H](CN(C)C(=O)Cc2ccccc2)[C@@H](C)CN([C@H](C)CO)C(=O)c2cc(NC(=O)Nc3ccc(F)cc3)ccc2O1,inactive: 1.01
20,CO[C@@H]1CN(C)C(=O)c2ccc(NC(=O)C3CCOCC3)cc2OC[C@@H](C)N(C(=O)Nc2ccc(C(F)(F)F)cc2)C[C@H]1C,inactive: 0.855
21,C[C@@H]1CCCCO[C@H](CN(C)C(=O)Nc2cccc3ccccc23)[C@@H](C)CN([C@H](C)CO)C(=O)c2cc(NC(=O)Nc3ccccc3)ccc2O1,inactive: 1.02
22,C[C@H](CO)N1C[C@H](C)[C@H](CN(C)Cc2ccc(C(F)(F)F)cc2)Oc2ccc(NC(=O)Cn3cnnn3)cc2C1=O,inactive: 1.01

row,SMILES,relative growth
1,CCS(=O)(=O)NCC[C@@H]1CC[C@H](NS(=O)(=O)c2ccccc2C)[C@H](CO)O1,inactive: 0.98
2,CCN1CCCC1=O,inactive: 0.999
3,C[C@H]1CN([C@@H](C)CO)S(=O)(=O)c2ccc(C#Cc3ccccc3)cc2O[C@@H]1CN(C)C(=O)c1ccccn1,inactive: 1.01
4,COc1cc2c(cc1OC)Cc1cc(OC)c(OC)cc1Cc1cc(OC)c(OC)cc1C2,inactive: 0.875
5,CC(C)NC(=O)N(C)C[C@H]1OCc2cnnn2CCCC(=O)N([C@H](C)CO)C[C@@H]1C,inactive: 1
6,C[C@@H]1CCCCO[C@H](CN(C)S(=O)(=O)c2ccccc2)[C@H](C)CN([C@@H](C)CO)C(=O)c2cc(NC(=O)Nc3ccc4c(c3)OCO4)ccc2O1,inactive: 1.02
7,COc1cccc(S(=O)(=O)N(C)C[C@@H]2Oc3cc(Br)ccc3S(=O)(=O)N([C@@H](C)CO)C[C@@H]2C)c1,inactive: 1.01
8,C[C@@H]1CCCCO[C@H](CN(C)CC2CCCCC2)[C@H](C)CN([C@H](C)CO)C(=O)c2cc(NC(=O)c3ccncc3)ccc2O1,inactive: 0.963
9,COCC(=O)N1C[C@@H](C)[C@H](OC)CN(C)C(=O)c2cc(NC(=O)c3ccc(OC)cc3)ccc2OC[C@@H]1C,inactive: 0.978
10,CC1=CC(C)(C)N(C(=O)Nc2ccc(C)cc2)c2ccccc21,inactive: 0.87
11,C[C@H](CO)N1C[C@H](C)[C@@H](CN(C)S(C)(=O)=O)Oc2ccc(NS(=O)(=O)c3cccs3)cc2CC1=O,inactive: 1.03
12,C[C@H]1CN([C@@H](C)CO)C(=O)c2cc(Br)cnc2O[C@H]1CN(C)S(=O)(=O)c1cccs1,inactive: 1.01
13,Cn1c(=O)[nH]c(=O)c2c1nc(N1CCN(CCO)CC1)n2CC(=O)c1ccccc1,inactive: 0.982
14,O=C(C[C@H]1C=C[C@H](NC(=O)Cc2ccccn2)[C@@H](CO)O1)NCCCN1CCOCC1,inactive: 0.987
15,CC(/C=C/C(=O)NO)=C\c1ccccc1OCc1cn(C[C@@H]2CCCN2S(=O)(=O)c2ccc(C)cc2)nn1,inactive: 0.781
16,C[C@@H]1CN([C@@H](C)CO)C(=O)CCCn2nncc2CO[C@H]1CN(C)S(=O)(=O)c1ccc(Oc2ccccc2)cc1,inactive: 0.99
17,Cl.Cl.NCCSSCCN,inactive: 0.928
18,C[C@H]1CN([C@@H](C)CO)C(=O)Cc2cc(NC(=O)Cn3cnnn3)ccc2O[C@@H]1CN(C)S(C)(=O)=O,inactive: 1
19,COCc1cc(C)[nH]c(=O)c1C#N,inactive: 0.92
20,Cc1noc(C)c1S(=O)(=O)Nc1ccc2c(c1)CC(=O)N([C@@H](C)CO)C[C@@H](C)[C@@H](CN(C)S(C)(=O)=O)O2,inactive: 0.976
